Test results reported in PubChem BioAssay AID651820 (National Center for Advancing Translational Sciences (NCATS), 2012).
Hit rate of the full screen: of about 340,000 compounds, about 12,000 (3.5%) were called active. Inconclusive results, whose numbers are uncertain, are shown with a selection of clear calls. Calls come from the whole dose curve; as a rule, active = well fitted inhibition curve with a large enough effect; inconclusive = small, poorly fitted or top-dose-only effect, or another doubt; inactive = no such curve, though single readings can be large or run the other way. Potencies of inconclusive entries are left out as doubtful fits.

assay: qHTS Assay for Inhibitors of Hepatitis C Virus (HCV); details: Huh7.5.1 HCVcc-Cre (HCVcc is cell-culture hepatitis C virus) infection, luciferase reporter, 44 h; activity change, negative = inhibition: at 41.8 µM (top of the series)
Summary of the method: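 Whole-lifecycle infectious HCVcc-Cre system; cells 1,000/well, compound then virus (~0.5 moi) added 4 h after plating, 44 h culture. Luciferase read 15 sec following 15 min substrate incubation, room temp.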
% is set by controls: 0 for no effect and ±100 for the full control effect; potency is the fitted concentration of half-maximal effect; tags give direction and shape of the fitted curve.

Row | SMILES | Potency | activity change, negative = inhibition
1 | COc1cc(NC(=O)c2c(-c3ccccc3Cl)noc2C)c2ncccc2c1 | inconclusive [inhibitor, partial curve] | 
2 | O=C(/C=C/c1ccc(Cl)c([N+](=O)[O-])c1)Nc1ccc(N2CCCC2)c(Cl)c1 | inactive | 
3 | CCN1C(=O)/C(=C/c2ccc(C)s2)SC1=Nc1ccc(OC)cc1 | inconclusive [inhibitor, full curve] | 
4 | O=C(NCC(c1ccco1)N1CCCC1)c1ccc(S(=O)(=O)Nc2ccccc2Cl)cc1 (stereo not drawn) | inconclusive [inhibitor, single point] | 
5 | COc1ccc(Cl)cc1NC(=O)CSc1nnc(Cn2c(=O)sc3ccccc32)n1C | inconclusive [inhibitor, partial curve] | 
6 | CN(C)c1ccc(NC(=O)CN2C(=O)CN=C(c3ccccc3)c3ccccc32)cc1 | inconclusive [inhibitor, full curve, poor fit] | 
7 | Cc1cccc(N/C=C(\[N+](=O)[O-])S(=O)(=O)c2ccccc2)c1C | inactive | 
8 | CC(=O)Nc1cccc(Oc2ncnc3scc(-c4ccc(C)cc4)c23)c1 | inconclusive [inhibitor, partial curve] | 
9 | CCc1nn(CC(=O)NCCCN(C)Cc2ccccc2)c(=O)c2cc3sc(C)cc3n12 | inconclusive [inhibitor, partial curve, poor fit] | 
10 | O=C(NCCCc1nc2ccccc2[nH]1)c1ccco1 | inactive | 
11 | CC1CCCC(C)N1C(=O)c1cc(-c2ccco2)on1 (stereo not drawn) | inactive | 
12 | CCOc1cc(NC(=O)c2ccco2)c(OCC)cc1NC(=O)COc1ccccc1C | inconclusive [inhibitor, full curve] | 
13 | O=C(c1ccc(-c2ccccc2)cc1)C1CCCN(C(=O)Cn2cncn2)C1 (stereo not drawn) | inconclusive [inhibitor, single point] | 
14 | CC1(C)Cc2ccccc2C(NNC(=O)c2ccc(Br)o2)=N1 | inconclusive [inhibitor, full curve, poor fit] | 
15 | CCCCC1=NN2C(=N)CC(=O)N=C2S1 | inactive | 
16 | Nc1nc(NCCCN2CCOCC2)nc(NCc2ccccc2)c1[N+](=O)[O-] |  | inconclusive: -72% [inhibitor]
17 | Cc1nc(N2CCOCC2)nc(N2CCCCC2)c1[N+](=O)[O-] | inconclusive [inhibitor, partial curve] | 
18 | COCc1cc(C)nc(SCC(=O)Nc2cccc(C)c2C)c1C#N | inconclusive [inhibitor, partial curve] | 
19 | O=C(CN1C(=O)/C(=C/c2ccccc2Cl)SC1=S)NC1C=CS(=O)(=O)C1 (stereo not drawn) | inactive | 
20 | CCOC(=O)c1c(NC(=O)COC(=O)c2ccccc2NC)sc(C(=O)N(C)C)c1C | active: 12.6 µM | 
21 | N#Cc1cccc(-c2cn(S(=O)(=O)c3ccc(Cl)cc3)nc2N)c1 | inconclusive [inhibitor, single point] | 
22 | COC(=O)c1ccc(C2C(Oc3ccccc3)C(=O)N2CCc2ccc(OC)c(OC)c2)cc1 (stereo not drawn) | inactive | 
23 | CC(C)c1ccc(NC(=O)CSc2n[nH]c(=O)n2Cc2ccco2)cc1 | inconclusive [inhibitor, partial curve] | 

Row | SMILES | Potency | activity change, negative = inhibition
24 | Cn1c(=O)cc(OCC(=O)NCCCN2CCN(c3cccc(Cl)c3)CC2)c2ccccc21 | inconclusive [inhibitor, single point] | 
25 | Cc1ccc(-c2csc(N3CCN(CCCn4c(C(F)(F)F)nc5ccccc54)CC3)n2)cc1 | inactive | 
26 | COc1cc(C(=O)Nc2ccc(S(=O)(=O)N(C)c3ccccc3)cc2)cc(OC)c1OC | inconclusive [inhibitor, single point] | 
27 | S=C(c1ccc(-c2cc(Cl)ccc2Cl)o1)N1CCOCC1 | inactive | 
28 | CNC(=O)c1ccc(NC(=O)CC23CC4CC(CC(C4)C2)C3)cc1 | inactive | 
29 | O=C(N/N=C/c1coc2ccccc2c1=O)c1cc(Br)c(O)c(Br)c1 | inactive | 
30 | C=CCn1c(NS(=O)(=O)c2ccccc2)c(S(=O)(=O)c2ccc(C)cc2)c2nc3ccccc3nc21 | inactive | 
31 | NNP(=O)(CC(=O)c1ccccc1)c1ccccc1 (stereo not drawn) | inconclusive [inhibitor, single point] | 
32 | COc1ccc(OC2C(=O)N(c3ccc(C)c(C)c3)C2c2ccc(OC)c(OC)c2)cc1 (stereo not drawn) | inconclusive [inhibitor, partial curve] | 
33 | O=C(CC1OC(=O)c2ccccc21)Nc1cc(Cl)ccc1N1CCCC1 (stereo not drawn) | inconclusive [inhibitor, full curve] | 
34 | COc1cccc(N(C(=O)Cn2nnc(-c3ccc(C)o3)n2)C(C(=O)NC2CCCC2)c2ccncc2)c1 (stereo not drawn) | inconclusive [inhibitor, partial curve] | 
35 | Cc1onc(-c2c(F)cccc2Cl)c1C(=O)N1CCCc2ccccc21 | inconclusive [inhibitor, single point] | 
36 | Cc1ccc(C(=O)N(C)CCOc2ccccc2)cc1S(=O)(=O)N1CCCCC1 | inconclusive [inhibitor, single point] | 
37 | CCOc1ccc(C(=O)N/N=C/c2cccc3cccnc23)cc1 | inconclusive [inhibitor, single point] | 
38 | CC(CNc1ccc([N+](=O)[O-])cc1)NC(=O)c1ccccc1Br (stereo not drawn) | inconclusive [inhibitor, single point] | 
39 | CCC(CC)n1c(C)cc(=O)n1C(CC)CC | inactive | 
40 | Cc1cc(N2CCC(C)CC2)n2ncc(-c3ccccc3)c2n1 | inconclusive [inhibitor, full curve] | 
41 | CC1(C)N=C(N)N=C(N)N1c1ccc(Oc2ccc(Cl)cc2)c(Cl)c1 | inconclusive [inhibitor, partial curve] | 
42 | O=C(NNC(=O)c1ccc(Br)o1)c1csc(N2CCOCC2)n1 | inactive | 
43 | CC(C)(C)c1ccc(C(=O)NC2CCN(Cc3ccccc3)CC2)cc1 | inconclusive [inhibitor, partial curve] | 
44 | Cc1cccc(OCC(=O)Nc2ccccc2N2CCCC2)c1C | inconclusive [inhibitor, partial curve] | 
45 | O=C(Nc1ccc(-c2cccc(F)c2)cc1)C1CCCN(Cc2ccccn2)C1 (stereo not drawn) | inconclusive [inhibitor, single point] | 
46 | CCOC(=O)C(C)Oc1cccc2c(=O)n(CC(=O)Nc3ccc4c(c3)OCCO4)ccc12 (stereo not drawn) | inactive | 

Row | SMILES | Potency | activity change, negative = inhibition
47 | CC(=O)Oc1ccc(N(C(C)=O)S(=O)(=O)c2ccc3ccccc3c2)cc1 | inconclusive [inhibitor, single point] | 
48 | O=C(NCC1CCCC(CNC(=O)Nc2ccc(Cl)cn2)C1)Nc1ccc(Cl)cn1 (stereo not drawn) | inconclusive [inhibitor, partial curve] | 
49 | CCCS(=O)(=O)c1ccc(COC(=O)c2cccc(NC(=O)C(C)C)c2)cc1 | inconclusive [inhibitor, full curve, poor fit] | 
50 | Cc1cccc(NC(=S)NCCc2ccc3c(c2)OCCO3)c1C | inconclusive [inhibitor, single point] | 
51 | CN(C)CCOC(C1CCCCC1)C1CCCCC1 | inconclusive [inhibitor, single point] | 
52 | Fc1ccc(-n2ncc3c(SCc4cccnc4)ncnc32)cc1 | inconclusive [inhibitor, single point] | 
53 | CCN(CC)S(=O)(=O)c1cc(C(=O)Nc2cc(C)on2)ccc1Cl | inconclusive [inhibitor, single point] | 
54 | CN(C)CCCNC(=O)C(=O)Nc1ccc2c(c1)N(S(=O)(=O)c1cccs1)CCC2 | active: 8.91 µM | 
55 | CCCC(=O)NC(c1ccc(OC)cc1)c1ccc2cccnc2c1O (stereo not drawn) | active: 3.16 µM | 
56 | NC(=O)c1c(NC(=O)c2ccc(F)cc2Cl)sc2c1CCC2 | inconclusive [inhibitor, partial curve] | 
57 | O=C(NCC1CCCCC1)c1ccc(Cl)c(S(=O)(=O)N2CCOCC2)c1 | inconclusive [inhibitor, single point] | 
58 | COc1nc(N(C)C)nc(N(OC)S(=O)(=O)c2ccccc2Cl)n1 | inactive | 
59 | CCCCn1c(O)c(C(CC)=NCc2cc(OC)cc(OC)c2)c(=O)[nH]c1=O | active: 12.6 µM | 
60 | O=c1c2ccccc2oc2cc(C#CC3(O)CCCCC3)ccc12 | inconclusive [inhibitor, partial curve] | 
61 | COCCCNCCCCSc1ccc(Cl)cc1 | active: 12.6 µM | 
62 | COC(=O)[C@@]12CCCN1[C@H](c1ccc(-c3ccc(Cl)c(Cl)c3)c(OC)c1)[C@H]1C(=O)N(C)C(=O)[C@H]12 | inconclusive [inhibitor, partial curve] | 
63 | Cc1nc(C)c(-c2csc(NCc3ccco3)n2)s1 | inconclusive [inhibitor, partial curve] | 
64 | CCOC(=O)c1c(NC(=O)COC(=O)Cn2cnc3c2c(=O)n(C)c(=O)n3C)sc(C)c1CC | inconclusive [inhibitor, single point] | 
65 | Cc1c2ccccc2nc2c(F)c(NC(C)C)c(F)c(F)c12 | inconclusive [inhibitor, single point] | 
66 | COc1ccc(C(CC(=O)c2ccc(C)cc2)Nc2ccc([N+](=O)[O-])cc2)cc1 (stereo not drawn) | active: 12.6 µM | 
67 | COc1cccc(N=C2SC(C(=O)Nc3ccc(F)cc3)CC(=O)N2C)c1 (stereo not drawn) | inconclusive [inhibitor, single point] | 
68 | CC(C)n1cc(CN2CCCC(CO)(Cc3cccc(Cl)c3)C2)cn1 (stereo not drawn) | inactive | 
